Values joined by “and” are separate entries in the source; they are usually repeats but may differ in a detail not shown here. Equal entries are not always repeated. Inconclusive results, whose numbers are uncertain, are shown with a selection of clear calls. Where the call is inconclusive, the potency comes from a doubtful curve fit. A structure can be active in one record and inactive in another. Active and inactive are the calls of the source. Unless noted, calls come from the whole dose curve; as a rule, active = well fitted curve in the direction sought with a large enough effect in the repeat runs; inconclusive = weak or mixed curves; inactive = no such curve, though single readings can be large; an effect the other way counts as inactive or inconclusive.
Legend:
[1] = qHTS assay to identify small molecule agonists of the endoplasmic reticulum stress response signaling pathway (AID 1159516; active = well fitted activation curve with a large enough effect in the signal ratio in the repeat runs, not every such curve was filed as active; inconclusive = weak or mixed curves, or effect the other way; the % refers to the signal ratio; for activation: % is set by controls: 0 for no effect and ±100 for the full control effect); details: ESRE-bla HeLa, ER stress beta-lactamase reporter, 5 h
How it was run: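 An ESRE-bla HeLa cell assay: compounds were pin-transferred from DMSO onto overnight-plated cells and left 5 hr at 37 C. Substrate was then loaded for 2 hr at room temperature before reading fluorescence at 460 nm and 530 nm.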

[2] = qHTS assay to identify small molecule antagonists of the vitamin D receptor (VDR) signaling pathway - cell viability counter screen (AID 743225); details: VDR-bla HEK293T viability, CellTiter-Glo luminescence, 16 h; viability change, negative = cytotoxic: at 61 µM (top of the series) unless noted; note: nearly all actives have a fitted effect of over 50% in size; for viability change, negative = cytotoxic: % is set by controls: 0 for no effect and ±100 for the full control effect
How it was run: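 Luminescent cell viability (CellTiter-Glo) in VDR-bla HEK 293T cells after 16 h compound exposure at 37C in the presence of 3 nM final 1-alpha,25-dihydroxy vitamin D3.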

[3] = qHTS assay to identify small molecule agonists of the endoplasmic reticulum stress response signaling pathway - cell viability counter screen (AID 1159517; calls by dose curve; note: nearly all actives have a fitted effect of over 50% in size); details: ESRE-bla HeLa viability, CellTiter-Glo luminescence, 5 h; series mostly up to 61 µM
How it was run: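 Counter-screen wells were identical to the reporter wells. Cells were plated at 1,500 per well and dosed for 5 hr, then read for luminescence 30 min after CellTiter-Glo addition.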

[4] = target: Nuclear receptor ROR-gamma (Homo sapiens) (UniProt P51449); assay: qHTS assay to identify small molecule antagonists of the retinoid-related orphan receptor gamma (ROR-gamma) signaling pathway (AID 1159521; note: nearly all actives have a fitted effect of over 50% in size); details: Tet-on RORgamma CHO cells, RORE-luciferase, 16 h; series mostly up to 92.4 µM
How it was run: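 CHO cells expressing RORγ under a TET-on promoter, luciferase under RORE control. Dox 1 uM final, 16 h; compounds added 2 h prior. Luminescence decrease measured.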

[5] = qHTS assay to identify small molecule agonists of the AP-1 signaling pathway (AID 1159526; calls by dose curve; for activation: % is set by controls: 0 for no effect and ±100 for the full control effect); details: ME-180 AP-1-bla reporter, beta-lactamase FRET ratio, 5 h; activation: at 76.8 µM (top of the series) unless noted
[6] = qHTS assay to identify small molecule agonists of the NFkB signaling pathway - cell viability counter screen (AID 1159515; calls by dose curve; note: nearly all actives have a fitted effect of over 55% in size); details: NFkB-bla ME-180 viability, CellTiter-Glo luminescence, 5 h; series mostly up to 61 µM
How it was run: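 Using the same wells as the NFkB reporter read, ME-180 NFkB-bla cells given compounds for 5 hr were assessed for viability via CellTiter-Glo, with luminescence taken after a 30 min room-temperature incubation.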

[7] = qHTS assay to identify small molecule agonists of the AP-1 signaling pathway - cell viability counter screen (AID 1159525; calls by dose curve; note: nearly all actives have a fitted effect of over 55% in size); details: ME-180 (cervical carcinoma) AP-1-bla cells viability, ATP luminescence, 5 h; series mostly up to 76.8 µM
How it was run: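 AP-1-bla ME-180 cells in Opti-MEM with 0.5% dialyzed FBS, compound exposure 5 h at 37 C in 15-point titration. Viability read in the same wells as ATP content by CellTiter-Glo luminescence, normalised to tetra-n-octylammonium bromide and DMSO controls.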

[8] = target: Retinoic acid receptor RXR-alpha (Homo sapiens) (UniProt P19793); assay: qHTS assay to identify small molecule agonists of the RXR signaling pathway (AID 1159527; calls by dose curve; note: nearly all actives have a fitted effect of over 35% in size; for activation: % is set by controls: 0 for no effect and ±100 for the full control effect); details: HEK293T RXRa-UAS-bla, beta-lactamase ratio, 16 h; activation: at 76.8 µM (top of the series) unless noted
Sequence of UniProt P19793 (P19793 whole entry, looked up): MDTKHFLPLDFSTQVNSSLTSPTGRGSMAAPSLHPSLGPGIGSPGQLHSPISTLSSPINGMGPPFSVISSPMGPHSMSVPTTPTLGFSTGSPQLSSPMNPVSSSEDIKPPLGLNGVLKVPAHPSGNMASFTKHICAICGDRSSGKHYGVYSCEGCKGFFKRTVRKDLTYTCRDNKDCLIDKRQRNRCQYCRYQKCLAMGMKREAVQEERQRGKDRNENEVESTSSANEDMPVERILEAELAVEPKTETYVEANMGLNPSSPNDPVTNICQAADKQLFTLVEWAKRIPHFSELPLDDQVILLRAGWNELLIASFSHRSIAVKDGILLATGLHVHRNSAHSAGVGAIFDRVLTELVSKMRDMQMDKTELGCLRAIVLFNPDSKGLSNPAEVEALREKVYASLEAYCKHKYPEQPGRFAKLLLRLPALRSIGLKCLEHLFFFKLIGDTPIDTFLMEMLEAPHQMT
How it was run: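 Beta-lactamase reporter assay, agonist format. Engineered HEK 293T line, charcoal-stripped FBS at 2%, overnight (16 hr) exposure, fluorescence at 460 and 530 nm after 405 nm excitation.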

[9] = qHTS assay to identify small molecule agonists of the RXR signaling pathway - cell viability counter screen (AID 1159529); details: RXR-alpha-bla HEK293T viability, CellTiter-Glo, 16 h; series mostly up to 76.8 µM; note: nearly all actives have a fitted effect of over 50% in size
How it was run: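 Same-well viability check after the LiveBLAzer FRET read: CellTiter-Glo added, luminescence measured after 30 min at room temperature. Reporter HEK 293T cells had been treated with compounds for 16 hr following a 5 hr preincubation.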

[10] = qHTS assay to identify small molecule antagonists of the retinoid-related orphan receptor gamma (ROR-gamma) signaling pathway - cell viability counter screen (AID 1159520); details: Tet-on RORgamma CHO cells viability, ATP luminescence, 16 h; series mostly up to 92.4 µM; note: nearly all actives have a fitted effect of over 50% in size
How it was run: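 Tet-on ROR gamma CHO cells were given compounds for 2 hr, then doxycycline hyclate at 1 uM final, and incubated 16 hr at 37 C. Viability was measured as ATP content by CellTiter-Glo luminescence.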

[11] = activation: at 61 µM (top of the series) unless noted
Potency is the fitted concentration of half-maximal effect; tags give direction and shape of the fitted curve or compound fluorescence and quenching.

CC(=O)OCC(COC(C)=O)OC(C)=O
Potency [1, 11]: inactive

C=C[C@H]1CN2CC[C@H]1C[C@@H]2[C@@H](O)c1ccnc2ccc(OC)cc12
Potency [1, 11]: inactive

NC(=Nc1ccccc1)Nc1ccccc1
Potency [2]: inconclusive: 2.45 µM [rising, full curve, poor fit] | Potency [1, 11]: inconclusive: 24.5 µM [activator] | activation [1, 11]: inconclusive: 9.33% | Potency [3]: inconclusive: 0.347 µM [cytotoxic, partial curve, poor fit] | Potency [4]: inconclusive: 0.0486 µM [inhibitor, full curve, poor fit] | Potency [5]: inconclusive: 24.5 µM and inconclusive: 19 µM [activator, partial curve]

COc1cccc(OC)c1C(=O)N[C@@H]1C(=O)N2[C@@H]1SC(C)(C)[C@@H]2C(=O)O
Potency [2]: inactive | Potency [6]: inactive

CN(N=O)C(=O)N[C@@H]1[C@@H](O)[C@H](O)[C@@H](CO)O[C@@H]1O
Potency [1, 11]: inactive

CCN1CCC[C@H]1CNC(=O)c1c(O)c(Cl)cc(Cl)c1OC
Potency [2]: inactive | Potency [6]: inactive

O=C1OC2(c3cc(Br)c(O)c(Br)c3Oc3c2cc(Br)c(O)c3Br)c2c(Cl)c(Cl)c(Cl)c(Cl)c21
Potency [2]: inconclusive: 61.8 µM [cytotoxic, partial curve, poor fit] | Potency [1, 11]: inconclusive: 49.1 µM [inhibitor] | activation [1, 11]: inconclusive: 7.71% | Potency [3]: inconclusive: 31 µM [cytotoxic, partial curve, poor fit] | Potency [4]: inconclusive: 13.7 µM [inhibitor, partial curve, poor fit] and inconclusive: 10.5 µM [inhibitor, single point] | Potency [7]: inconclusive: 27.6 µM [cytotoxic, partial curve, poor fit] | activation [5]: inconclusive: -13.8% | Potency [8]: inconclusive: 24.6 µM and inconclusive: 37.4 µM | Potency [9]: inconclusive: 39 µM [cytotoxic, partial curve, poor fit]

CCCCOCCOCCSC#N
Potency [1, 11]: inactive

CCCCCCCC(=O)[O-].CCCCCCCC(=O)[O-].[Zn+2]
Potency [2]: inactive | Potency [6]: inconclusive: 23.9 µM [rising, partial curve, poor fit]

CC(=O)CCC(C)C
Potency [1, 11]: inactive

CC(O)CN(CCN(CC(C)O)CC(C)O)CC(C)O (stereo unspecified)
Potency [1, 11]: inactive

NCCNCCO
Potency [2]: inconclusive: 62.3 µM [rising, partial curve, poor fit] | Potency [6]: inconclusive: 62.3 µM [rising, partial curve, poor fit]

OCC(CO)(CO)CO
Potency [1, 11]: inactive

CC(C)(C)NCC(O)c1ccc(O)c(CO)c1 (stereo unspecified)
Potency [1, 11]: inactive

NC(=O)OCC(COC(N)=O)c1ccccc1
Potency [1, 11]: inactive

CC(=O)OCC(=O)NCCCOc1cccc(CN2CCCCC2)c1
Potency [2]: inactive | Potency [6]: inconclusive: 6.01 µM [cytotoxic, partial curve, poor fit]

CC(C)(C)C1=CC(=O)C=C(C(C)(C)C)C1=O
Potency [1, 11]: inactive

CC1(C)O[C@@H]2C[C@H]3[C@@H]4CCC5=CC(=O)C=C[C@]5(C)[C@@]4(F)[C@@H](O)C[C@]3(C)[C@]2(C(=O)CO)O1
Potency [1, 11]: inactive

NCCc1ccc(O)c(O)c1
Potency [2]: inconclusive: 0.268 µM [cytotoxic, single point] | activation [1, 11]: inconclusive: 6.72% | activation ([1]; at 61 µM (top of the series)): inactive: -0.874% | Potency [3]: inconclusive: 21.9 µM [rising, single point] | Potency [5]: inconclusive: 61.8 µM [activator, partial curve, poor fit] | Potency [8]: inconclusive: 19.6 µM [activator, partial curve, poor fit]

O=C(CCCN1CC=C(n2c(=O)[nH]c3ccccc32)CC1)c1ccc(F)cc1
Potency [2]: inactive | Potency [6]: inconclusive: 26.8 µM [cytotoxic] | Potency [9]: inconclusive: 5.35 µM [cytotoxic, partial curve, poor fit]

CC(C)c1cccc(C(C)C)c1N
Potency [6]: inactive | Potency [9]: inconclusive: 17.4 µM [rising, partial curve, poor fit]

Cc1cc(O)cc2c1O[C@](C)(CCC[C@H](C)CCC[C@H](C)CCCC(C)C)CC2
Potency [2]: inconclusive: 1.07 µM [cytotoxic, single point] | Potency [6]: inactive

CC(C)(C)c1cc(Cc2cc(C(C)(C)C)c(O)c(C(C)(C)C)c2)cc(C(C)(C)C)c1O
Potency [1, 11]: inactive

NNC(=O)CP(=O)(c1ccccc1)c1ccccc1
Potency [1, 11]: inconclusive: 1.07 µM [falling, single point]

CCCCC(CC)C(=O)OCCOCCOCCOC(=O)C(CC)CCCC (stereo unspecified)
activation [1, 11]: inconclusive: 2.61% [at 78.8 µM] | activation ([1]; at 61 µM (top of the series)): inactive: -0.23%

Nc1ncnc2c1ncn2[C@H]1CC[C@@H](CO)O1
Potency [2]: inconclusive: 62.9 µM [cytotoxic, single point] | Potency [6]: inconclusive: 56 µM [rising, partial curve, poor fit]

O=C1c2cccc(O)c2C(=O)c2c(O)cccc21
activation ([1]; at 61 µM (top of the series)): inconclusive: -7.37% | activation ([1]; at 78.8 µM (top of the series)): inconclusive: -6.18% | Potency [3]: inconclusive: 22.1 µM [rising, single point] | Potency [10]: inconclusive: 19.5 µM [cytotoxic, partial curve, poor fit] | Potency [5]: inconclusive: 0.0017 µM [rising, full curve, poor fit] | activation [5]: inconclusive: 15.1%

CCC(O)C(C)(C)C (stereo unspecified)
Potency [2]: inactive | Potency [6]: inactive

CCN(C(=O)N(CC)c1ccccc1)c1ccccc1
Potency [2]: inactive | Potency [6]: inconclusive: 54.9 µM [cytotoxic, partial curve, poor fit]

Cc1ccccc1N=C(N)Nc1ccccc1C
Potency [2]: inconclusive: 2.15 µM [cytotoxic, single point] | Potency [6]: inconclusive: 60.5 µM [cytotoxic, partial curve, poor fit]

COC(=O)c1c(C)cc(O)c(C)c1O
Potency [2]: inactive | Potency [6]: inactive

CCOc1c(N2CCOCC2)cnn(C)c1=O
Potency [2]: inactive | Potency [6]: inactive

CC1CCCC(=O)C1=O (stereo unspecified)
Potency [1, 11]: inconclusive: 21.9 µM [activator]

CC(=O)OC(C)c1ccccc1 (stereo unspecified)
Potency [2]: inactive | Potency [6]: inactive

C[C@]12CC[C@@H]3c4ccc(O)cc4C[C@@H](CCCCCCCCCS(=O)CCCC(F)(F)C(F)(F)F)[C@H]3[C@@H]1CC[C@@H]2O (stereo partly specified)
Potency [2]: inconclusive: 4.36 µM [cytotoxic, full curve, poor fit] | Potency [1, 11]: inconclusive: 0.0601 µM [rising, full curve, poor fit] | activation [1, 11]: inconclusive: 6.74% | Potency [10]: inactive | Potency [4]: inconclusive: 5.44 µM [inhibitor, full curve] and inconclusive: 4.52 µM [inhibitor, full curve] and inconclusive: 119 nM [inhibitor, single point]

OCC#CCO
Potency [2]: inconclusive: 11 µM [cytotoxic, full curve, poor fit] | Potency [1, 11]: inconclusive: 22.2 µM [falling, partial curve, poor fit] | activation [1, 11]: inconclusive: 4.57% | Potency [3]: inactive | Potency [10]: active: 54.5 µM | Potency [4]: inconclusive: 68.6 µM [inhibitor, single point] | Potency [5]: inconclusive: 49 µM [falling, single point] | Potency [8]: inactive | Potency [9]: inactive

O=C(O)CCCCCCCCCCCBr
Potency [2]: inconclusive: 49.1 µM [cytotoxic, partial curve, poor fit] | Potency [6]: inconclusive: 13.8 µM [cytotoxic, partial curve, poor fit]

CCCCC/C=C/C=C/C=O
Potency [2]: inconclusive: 19.5 µM [cytotoxic, single point] | viability change, negative = cytotoxic [2]: inconclusive: -16.1% [cytotoxic] | Potency [1, 11]: inconclusive: 54.5 µM and inconclusive: 49 µM | Potency [3]: inconclusive: 61.2 µM [cytotoxic, partial curve, poor fit] | Potency [10]: inconclusive: 68 µM [cytotoxic] and inconclusive: 48.6 µM [cytotoxic, partial curve] | Potency [4]: inconclusive: 61.1 µM [inhibitor] | Potency [7]: inconclusive: 61.7 µM [cytotoxic, partial curve, poor fit] | Potency [5]: inconclusive: 54.9 µM [falling, single point] | Potency [9]: inconclusive: 21.9 µM [cytotoxic, partial curve]

CC(CN(CCN(CC(C)OCCO)CC(C)OCCO)CC(C)OCCO)OCCO (stereo unspecified)
Potency [1, 11]: inactive | Potency [3]: inconclusive: 66.7 µM [cytotoxic, single point]

CCCCC(CC)COC(=O)CCCCC(=O)OCc1ccccc1 (stereo unspecified)
Potency [1, 11]: inconclusive: 24.5 µM [rising, single point] | Potency [3]: inactive

S=c1[nH]c2ccccc2s1
Potency [1, 11]: inconclusive: 11 µM [falling, full curve, poor fit] | Potency [3]: inconclusive: 0.195 µM [rising, full curve, poor fit] | Potency [10]: inconclusive: 13.7 µM [cytotoxic, full curve] | Potency [4]: inconclusive: 34.4 µM [inhibitor, partial curve, poor fit] | Potency [5]: inconclusive: 24.5 µM | Potency [8]: inconclusive: 24.5 µM

CCN(Cc1ccncc1)C(=O)C(CO)c1ccccc1 (stereo unspecified)
Potency [1, 11]: inactive | Potency [3]: inactive

Source: PubChem BioAssay (Tox21)
